# Laboratory results published in ChEMBL document CHEMBL1156829.
# Whole data set: some 5,400 compounds, median “IFI” near 2, cut for the highest 2% near 22. The list shows a part of the results.
# Experiment: NOVARTIS: Inhibition Frequency Index (IFI) - the number of HTS assays where a compound showed > 50% inhibition/induction, expressed as a percentage of the number of assays in which the compound was tested.
# Type: functional
row,SMILES,IFI [%]
1,c1ccc(Cn2c(N=Nc3c(Nc4ccccc4)ccc4ccccc34)nc3ccccc32)cc1,15.1
2,CCOC(=O)c1cnc2ccc(OC)cc2c1NCc1cccs1,1.85
3,CC(=O)N(C)C1=C(N2CCOCC2)C(=O)c2ccccc2C1=O,22.1
4,O=c1c2c3c(sc2[nH]c(=S)n1C1CCCCC1)CN(Cc1ccccc1)CC3,0
5,CC(C)NC(=O)[C@@H]1C[C@@H](NCc2cccnc2)CN1Cc1ccc2ccccc2c1,0
6,COc1cc(Nc2nccn3c(-c4ccsc4)cnc23)cc(OC)c1OC,8.33
7,CC(C)CNC(=O)c1cnc(NCCCn2ccnc2)nc1NC1CCCC1,2.88
8,COc1ccc(-c2cnc3ccc(NCc4cccc(Cl)c4)nn23)cn1,0
9,CC(=O)N1c2ccccc2NC2=C(C(=O)CCC2)C1c1ccc([N+](=O)[O-])cc1 (stereo unspecified),5
10,CCOC(=O)c1c(C)[nH]c(C)c1S(=O)(=O)N1CCCC(C(=O)N2CCN(c3cc(C)ccc3C)CC2)C1 (stereo unspecified),0
11,CCOc1ccc2[nH]c(=O)c(CN(CCc3ccccc3)C(=O)c3cnccn3)cc2c1,3.23
12,Cc1ccc(N2C(=O)C3C(C2=O)C2(c4ccccc4)C(=O)C3(c3ccccc3)C(c3ccccc3)=C2c2ccccc2)cc1Br (stereo unspecified),0
13,CC(=O)N(C1=C(N2CCOCC2)C(=O)c2ccccc2C1=O)c1ccc(C(C)C)c(C)c1,7.69
14,Cc1cccc(-n2c(CNC(=O)c3ccc(S(=O)(=O)N4CCCCC4)cc3)nnc2SCC(=O)Nc2nccs2)c1,1.19
15,O=C(Nc1ccc(C(F)(F)F)cc1)c1ccc(NCCCN2CCCCCC2)c([N+](=O)[O-])c1,0
16,O=C(NNc1ccccc1F)c1c(F)cccc1Cl,0.8
17,COC(=O)C1CCCN1S(=O)(=O)c1ccc2ccccc2c1 (stereo unspecified),0
18,CCN(CC)c1ccc(C=NNC(=O)c2ccc(Nc3nc(-c4ccccc4)cs3)cc2)c(O)c1,27.3
19,O=C(c1cc2n(n1)C(C(F)(F)F)CC(c1cccs1)N2)N1CCN(C(c2ccccc2)c2ccccc2)CC1 (stereo unspecified),0
20,CCCCc1ccc(C(=O)NCCCCNc2ccnc3cc(Cl)ccc23)cc1,2.13
21,CCCOC(=O)C1=C(C)NC2=C(C(=O)CC(c3ccc(OC)cc3)C2)C1c1ccccc1Cl (stereo unspecified),2.35
22,CC(C)c1ccc2c(c1)c1c3c([n+](C)ccn32)CCC1,4.17
23,COc1cccc(C(=O)N(CCCC(C)Nc2cc(OC)cc3cccnc23)Cc2ccc(OC)c(OC)c2)c1 (stereo unspecified),3.81
24,CCOC(=O)c1cnc2ccc(C(C)C)cc2c1O,0
25,CC(c1nc2ccc(Cl)cc2c(=O)n1C)N1CCN(S(=O)(=O)c2cccc3ccccc23)CC1 (stereo unspecified),0
26,COc1nncc(-c2cnnc(SC)n2)n1,4.62
